Measurements reported in the supplement of paper PMC11417369.
The other results are listed elsewhere or left out.

Each sequence was assayed on PfHDP1 homeodomain (GST-tagged) (assay: gcPBM binding intensity (ln(normalized median fluorescence intensity)); higher = stronger DNA binding).
Procedure, shortened: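 After 1 h on an Agilent 4 × 180k array of primer-extended double-stranded 36-bp intergenic genomic probes and negative controls, bound GST-tagged P. falciparum DNA-binding domains were detected with Alexa488 anti-GST antibody and scanned at 488 nm. The domains had been expressed in E. coli, and binding took place in 1× PBS with 1% milk, 0.2 mg/ml BSA, 0.5% salmon testes DNA and 0.03% Triton X-100. Binding intensity is the highest Masliner-normalised natural-log median intensity across replicate spots of either probe orientation.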

Point of comparison: “TAAACAAATAAATAAACACACAATATAGGTATATAT [CACACA_site7739]”, “gcPBM binding intensity (ln)” value 6.49. Against it:
- ATAAAATAAATATAACCACACACGAAAGAGAGAGAA [CACACA_site9075] — higher, 7.1
- TTGTATTACATAAATGTTCTTTATTATTTGATAAAA [CACACA_negctrl_site903] — lower, 6.23
- TATATAATATATTAATGTACTTAAAATATATTCTAT [XGTACX_site1235] — lower, 6.16
- AATAAAATATACTATTGTACATATGGAACTACTTGA [XGTACX_site8928] — lower, 6.24
- TTGTTTTTAGTTTATACACACCATATTAAAATAATG [CACACA_site5675] — higher, 7.02
- ATTTATTATATATAGTGTACGTTCTTAATTATAATT [XGTACX_site7480] — higher, 6.55
- TGTATAAACCCACGTACACACACTAAGTATATCCAA [CACACA_site1605] — higher, 6.84
- TTTTTTAAATATTAAAAATGGGATCTTATAACATAT [GTGCAC_negctrl_site666] — lower, 6.38
- TAAAATATATTGCCAGTGCATAATATATGTAATTAT — higher, 9.13
- TTATTTTTAACGTACGCACACATATAAATATATTTA [CACACA_site1976] — higher, 7.4
- AACTAATAAAAAAAAAAAACATTAAACAGGACAAAT [XGTACX_negctrl_site287] — higher, 6.68
- TATATATATTTCCAGTGTACTTATTTTTTAATCAAT [XGTACX_site8220] — higher, 6.7
- CACATTTAGAAATAGTTTTATTTTGTATATTCTATT [CACACA_negctrl_site1382] — lower, 6.01
- TTTTGTATATATCACATTAAAAGAAAAAAATATATG [GTGCAC_negctrl_site120] — lower, 6.39
- GTATGTGTATGTGTATGTACATATGTATGTATAAAA [XGTACX_site8191] — higher, 8.13
- TATACATTTATGTACACACACATATCTGTATATTTA [CACACA_site5617] — lower, 6.39
- GTGTAGTTAAAAAAAAGTACAGATTTTTTTTTTTTT [XGTACX_site849] — lower, 6.29
- ATAAGAACGTCTATGTGTACGCAGCAAAACTGAGTT [XGTACX_site6385] — lower, 6
- AAAAAAAAAAAAACAAGTACAAAGGATAGAAAAAAA [XGTACX_site4133] — lower, 6.23
- ATAGAATATTGATATTGTACGTTATCTTAAAACAAT [XGTACX_site1702] — lower, 6.27
- AACCAATTATATTTACGTACGTACGGTTTTTTATAT [XGTACX_site1291] — higher, 6.8
- CAAAAAAAAAAAAAAAATAAATAAAGGAAATAAAAA [CACACA_negctrl_site20] — lower, 6
- ACATATAAAATGTATACACACAAATATTACATATAT [CACACA_site1472] — higher, 6.52
- AATAAAAAATATAACACAAATATGTATATATATATA [TGCATGCA_negctrl_site245] — higher, 8.92
- TTCTCAAAGAAGAAAAAGTTTTTTTAATTTTTCTTT [XGTACX_negctrl_site543] — lower, 5.75
- AATATATTTTTTTTTTGTACATATTGTAAAATAATA [XGTACX_site6805] — lower, 6.38
- ATATATTAATATACTCGTACATATTCTTATTGTGTA [XGTACX_site3728] — higher, 6.79
- TATAAAGATATAAATGCACACGTATTAAAAAAAAAA [CACACA_site8223] — higher, 8.22
- AGGAGGATAGTTCACAGTACCCAGTAACTCTACGGA [XGTACX_site1997] — lower, 6.06
- GCATATATGGATATATAGGTATATATAAATGCAATA [GTGCAC_negctrl_site24] — lower, 6.46
- CCTCTCATTTTATATAGTACATATTTCAAAAAAAAA [XGTACX_site488] — higher, 6.65
- GCATATTTTCCCTGTGAATAAAGTTTTTTTTTTTAT [XGTACX_negctrl_site87] — lower, 6.29
- ATATAAAAAAAAAATTGTACAAAAATATATACATAT [XGTACX_site469] — higher, 6.54
- AAAATACACGATAGTTGTACATTAAATGTATACAAT [XGTACX_site360] — the same, 6.49
- CATCCGTTGATATATGCATGCATATTGTTATTACCA [TGCATGCA_site868] — higher, 7.15
- AAATGACTATATAAAAGTACTAGAAAGTATAAATAT [XGTACX_site944] — higher, 6.58
- TCTAATACACAATGTTGTACATATTAATATATATGT [XGTACX_site2931] — higher, 7.25
- ATCATTCTTAAACCGTGTACTTATTATTTTTTTTTT [XGTACX_site2798] — higher, 6.88
- TATTTTTTACATTCGTGTACGCATTTTTGTGAATTT [XGTACX_site5339] — lower, 6.48
- AAAAATAGAGCAGCTCTCATATTTTTATGTGCAATA [CACACA_negctrl_site837] — higher, 10.6
- ACAAAAATATTTGTAAAAAGAAATATAAATAAATAA [TGCATGCA_negctrl_site357] — lower, 6.47
- TATTACACACAATATTGTACACATAGGAAAAATATT [XGTACX_site1726] — higher, 7.01
- GCATTTATGAAAAATGTACACACATCAAATGCTTAT [CACACA_site9347] — lower, 6.48
- AGGATATATTATATGTACACACACATATAAGGGATT [GTGCAC_negctrl_site47] — higher, 6.52
- AAGGTATAGAAACACACACACGTGAATATAGTTTAA [CACACA_site5109] — higher, 6.59
- CGTTATATAATAAAGGTGCATAGATATATCATTATA [GTGCAC_site9774] — higher, 7.86
- TATATAACATATATATGTACACATAATATCAGATTT [XGTACX_site1041] — higher, 6.59
- TATATATGTATATATTGTACTTTAAGACAAATATAT [XGTACX_site1052] — lower, 6.36
- TTCTTAAATATATTCAACATACATAATATATAATCT [CACACA_negctrl_site1806] — higher, 6.53
- AATATTTTTCAATTTCATGTGCATTCATTGAAGTTA [CACACA_negctrl_site1232] — higher, 9.18
- TAATTGTAGACATGCACACACAAATATTATATATGT [CACACA_site845] — higher, 8.16
- TAATTTTTTTTAAACACACACATTACATTCAAAAAT [CACACA_site127] — the same, 6.49
- TTTCAAATATATATAGCACACAAGGTATAATATAAA [CACACA_site877] — lower, 6.38
- TTCACTAATAAATACGCACACATATACATATATATA [CACACA_site1383] — higher, 7.62
- ATATAAAAAAGGGAGGTAAATGAATGTGAAACCCAA [GTGCAC_negctrl_site359] — higher, 6.62
- TTTTAATTAGTACAAACACACATATACACCCAAAAA [CACACA_site5422] — higher, 7.38
- CTAATATAGGTATGCACACACAATATGTACATATTT [CACACA_site7558] — higher, 9.3
- AATATATATATATATCCACACACATACATATATTAA [CACACA_site7907] — higher, 6.69
- TACATAAAAATATATGCATGTTCTTATTTAATAAAA [TGCATGCA_site743] — lower, 6.21
- ATGGTTTTTATTTTATGTACTTACTAAAATGAATAA [XGTACX_site4317] — lower, 6.4
- ATGTTTAAATTTTTCAGTACATATATTCTAGTAAAA [XGTACX_site1010] — lower, 6.3
- GAATATGTTAACATTTGTACATAAAATTTTTTACAA [XGTACX_site2444] — higher, 6.51
- GATATATTACTTAAAATACACACCATGGAAAAGTTT [CACACA_site2606] — higher, 6.52
- CATATAAAAGGACACACACACACATATATATATATA [CACACA_site4674] — higher, 9.09
- TATTTTATTTTTTGTTGTACATATATATTATATATA [XGTACX_site4513] — higher, 6.89
- ATATGTAAAATATGGTGTACAATCAAATAAAAAAAA [XGTACX_site6270] — higher, 6.73
- ATTAATATATTTACCACACACCCATTTCGATTTTAT [CACACA_site3605] — higher, 6.89
- ATATATATATATAGTAGTACTCTCTCTGTATATATA [XGTACX_site3754] — higher, 9.1
- ATTTAGAAAAATAAAACACACATATATCTGTAAATA [CACACA_site6119] — higher, 6.53
- TATACATAAAAAAATTTTACCAGGTTAATACAAATA [CACACA_negctrl_site1171] — higher, 6.65
- TTCCTTTGTTGTCGTTGTACTTATATGGTTATAATT [XGTACX_site3082] — higher, 7.51
- TACCTTATGTTATATACACACATATAACATAATATA [CACACA_site6741] — higher, 6.76
- ACTATATTTCATAACAGTACATATTCCTGAAACATC [XGTACX_site4924] — lower, 6.43
- CATGCTTATATGTGCACACACAAAAGAAAAGAAAAA [CACACA_site1655] — higher, 11
- ACAATATAAAAAAATTGTACATAATATATAATATTA [XGTACX_site1040] — lower, 6.35
- AAAAAAATCTCCAGTGTGCACAATCACATAATATAT [GTGCAC_site9833] — higher, 10.8
- GAGATAAAATAAAACACACACATATATATATAGAAT [CACACA_site2197] — higher, 7.03
- TATAAGCTAAGTTGTTGTACAAAAAGGAAAAGTATA [XGTACX_site3741] — higher, 7.5
- TGTTACATAAAATGCACACTTTCAAATATGCTAATA [CACACA_site2925] — higher, 9.73
- AAATATAAATATACTCGTACATATATATATATATAT [XGTACX_site6940] — higher, 9.34
- TTTTCTTTTAAGTTTGTTTTACACTTTTTATTTTGA [CACACA_negctrl_site1581] — lower, 6.43
- TATACGTATTTTATATGTACACATATACATATTTAT [XGTACX_site5301] — higher, 6.58
- AATATATGGTTTCATGATATTAAATTCAATTTAATG [GTGCAC_negctrl_site370] — lower, 6.05
- CTATTATAATATTTTACACACCATGTAAAATATATA [CACACA_site3206] — higher, 6.54
- CTATTTTGGATGTGTACACATATATATATTTATATT [CACACA_site5706] — higher, 7.58
- ATCATTCTTCATTTGTCACACATGATAAAAATATAT [CACACA_site4953] — higher, 6.72
